Measured values from the supplement of paper PMC4166925.
± gives the standard deviation of the averaged measurements. The full ranking holds about 33,000 sequences; the median of “E-score (dimensionless, -0.5 to 0.5)” is about -0.049, and the highest 2% start at about 0.37. Some of the results follow.

Test system: T1, PmTbr T-box DNA-binding domain (GST fusion)
T1 sequence: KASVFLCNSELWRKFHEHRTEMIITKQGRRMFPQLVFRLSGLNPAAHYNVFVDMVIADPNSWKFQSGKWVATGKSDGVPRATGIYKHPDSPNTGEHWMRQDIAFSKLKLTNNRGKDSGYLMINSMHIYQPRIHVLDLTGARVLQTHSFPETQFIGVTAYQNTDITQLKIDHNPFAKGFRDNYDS
Assay: PBM E-score of 8-mer (E-score (dimensionless, -0.5 to 0.5)); Tbr is Tbrain of the sea star Patiria miniata (Pm) or the sea urchin Strongylocentrotus purpuratus (Sp); higher = stronger binding preference; most listed sequences are background and not binding sites
Conditions: the construct has about 5 more residues each side
Method: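 Universal protein-binding microarray (Agilent AMADID 016060, 60-bp probes with a 35-bp variable region) incubated with 200 nM GST-fused Patiria miniata Tbr T-box DNA-binding domain (residues 272-466) in PBS pH 7.5. Scored for every ungapped 8-mer (given with its reverse complement) by the Universal PBM Analysis Suite as E-score (modified Wilcoxon-Mann-Whitney enrichment, range -0.5 to 0.5; >0.45 counts as bound) and Z-score of median probe intensity. Two replicate arrays (datasets 1 and 2).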
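Further: 200 nM protein in PBS on universal arrays averaged over duplicate arrays.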

Sequence	PBM E-score of 8-mer
ATCGCAAG	0.18 ± 0.019
AACGACCT	-0.0518 ± 0.053
CTGTGTGA	0.298 ± 0.018
CATTGCGG	-0.0397 ± 0.028
GCGTGTGA	0.373 ± 0.016
TTCATGAA	-0.283 ± 0.076
CAGCGCGA	0.203 ± 0.029
CGCTACCG	0.138 ± 0.029
GGTCTCTA	-0.125 ± 0.011
AGCATAGC	-0.0299 ± 0.035
GGAGTAAC	-0.0933 ± 0.0021
AGCGATCA	0.0219 ± 0.084
GCATCCCA	-0.107 ± 0.015
GGTTGGTA	-0.0707 ± 0.01
AAAGCAGG	0.0888 ± 0.091
TGCCGGCA	-0.0434 ± 0.088
CATGGGGG	-0.277 ± 0.059
GCCCCGAA	-0.261 ± 0.038
CAGCTCTA	0.0297 ± 0.05
CTATGATA	-0.155 ± 0.024
AAGTTCCG	-0.0839 ± 0.022
GTGCAGGA	-0.066 ± 0.036
AAACGGGA	-0.228 ± 0.025
AAAAATCG	0.162 ± 0.073
AAGCTCCT	-0.239 ± 0.011

Sequence	PBM E-score of 8-mer
ACTTCTTA	-0.00926 ± 0.062
TACTGAGA	-0.28 ± 0.051
CTTGTGGC	0.0498 ± 0.0044
ATTATAAT	0.048 ± 0.097
CACTTAAC	0.304 ± 0.004
GTACGTTA	-0.0122 ± 0.038
ACCTCCGT	0.3 ± 0.02
CACGGCAC	0.185 ± 0.014
GGGTCTTA	-0.271 ± 0.011
ACAATCAG	-0.077 ± 0.011
ACGCCAGT	0.109 ± 0.02
ACCAACTC	-0.0968 ± 0.014
CCAGAAAC	-0.0362 ± 0.0098
CTTATACC	-0.173 ± 0.13
AGTCTAAA	-0.206 ± 0.045
CTTCCGAC	-0.0114 ± 0.006
GGGGCCCC	-0.373 ± 0.0082
GTTTCGTA	0.0798 ± 0.01
AAGTTGCA	0.0571 ± 0.086
AAGCGGCA	-0.101 ± 0.081
GAAGCAAA	-0.258 ± 0.058
AGTACGAT	-0.238 ± 0.038
CGGGGCGA	0.0995 ± 0.023
AACCCAAG	-0.126 ± 0.0083
CAGTAGGC	0.00485 ± 0.0087

Sequence	PBM E-score of 8-mer
TGTACGAA	-0.0368 ± 0.13
CCGCGCGA	0.226 ± 0.0095
GTTATATA	-0.0715 ± 0.037
CTCGAGAC	-0.0526 ± 0.004
ATCAACTC	0.0652 ± 0.025
CTATCGGC	0.0342 ± 0.0053
CGTTGTGC	0.11 ± 0.063
AAGGCGAC	0.245 ± 0.024
ACGGCAGT	-0.121 ± 0.086
CACACTCG	0.408 ± 0.011
CAGCTGAC	0.0103 ± 0.008
CACGTCGC	0.268 ± 0.018
GCAGGAGC	-0.124 ± 0.0015
ATCCACAA	-0.0348 ± 0.017
GAGATATA	-0.145 ± 0.0055
ATTCCTTC	-0.15 ± 0.1
AGTTGTGA	0.387 ± 0.017
AATACGGC	-0.0428 ± 0.11
ACGAATAC	-0.0576 ± 0.036
GGAAACAA	-0.209 ± 0.019
CCAAACAA	-0.0329 ± 0.0076
ACACCATG	0.36 ± 0.025
CCTTGTAA	-0.0975 ± 0.037
CCGCCCGC	-0.0385 ± 0.058
ATTATTGC	-0.118 ± 0.055

Sequence	PBM E-score of 8-mer
GATCAGAC	-0.23 ± 0.019
AAGCCTCG	-0.0234 ± 0.039
TAGATTAA	-0.0736 ± 0.046
CCCGGCTC	-0.29 ± 0.022
CCTTCGAA	0.0378 ± 0.023
CGAGCGTC	-0.138 ± 0.023
AGACTCTA	-0.267 ± 0.08
CCCCTGTA	-0.0841 ± 0.033
AACAATCC	-0.0388 ± 0.023
CAATCAAA	-0.0855 ± 0.024
ACACTAAT	0.162 ± 0.018
CGGCTGTC	0.0205 ± 0.07
ATGGATTA	-0.273 ± 0.04
ACATGGCT	-0.062 ± 0.043
AGTTGGTG	0.148 ± 0.0097
CCTCATAA	-0.0348 ± 0.046
ACAACCAC	0.127 ± 0.018
CCACCGGA	-0.209 ± 0.0098
GCGGCGAC	0.0452 ± 0.07
ATCATTGC	-0.15648 ± 4.9e-05
TGATACCA	-0.0231 ± 0.066
AGACAAGC	-0.0272 ± 0.021
CTTCGGAC	-0.095 ± 0.064
AAACGCTC	-0.231 ± 0.022
CGTAGCAC	0.25 ± 0.0023

Sequence	PBM E-score of 8-mer
AATTGGGT	0.0285 ± 0.094
GAGAGATC	-0.0303 ± 0.039
TCGATGCA	-0.281 ± 0.051
AAATCGAC	0.0677 ± 0.0049
ATCGCCCA	-0.0928 ± 0.011
CTGACGTC	-0.144 ± 0.03
AGCCGGCG	-0.0345 ± 0.04
TCCGTAAA	0.0342 ± 0.0079
GTAGAGCA	-0.196 ± 0.024
ACACGACA	0.198 ± 0.038
ACAACGAT	-0.0105 ± 0.005
CCCTCGGA	-0.2767 ± 0.0014
CAGGCCGA	-0.0705 ± 0.045
CTTCTCAC	0.365 ± 0.01
CGACCCAG	-0.174 ± 0.039
TCTGACCA	-0.269 ± 0.0061
CCTCGCAC	0.42 ± 0.014
ACTCTGGG	-0.116 ± 0.055
AGCGCTCG	0.101 ± 0.095
CAAGCTGA	-0.156 ± 0.077
CTTCCTTA	-0.0298 ± 0.074
CCCTGTGC	-0.158 ± 0.024
GATGTTGA	-0.0175 ± 0.0044
ACCCTACT	0.129 ± 0.007
AAGGGGCA	-0.322 ± 0.081

Sequence	PBM E-score of 8-mer
GGGGTTTA	-0.00492 ± 1.4e-05
CAGTTGCC	0.132 ± 0.036
ATTATGGA	-0.148 ± 0.028
AAATGGGT	0.0414 ± 0.067
CTGATCTC	-0.059 ± 0.072
CAAATCTC	0.0834 ± 0.033
GCACAACC	-0.0181 ± 0.11
AGTTTCGG	-0.308 ± 0.0087
GAAACGCC	0.103 ± 0.043
TGCAGCAA	-0.055 ± 0.007
GAGGCATC	-0.228 ± 0.033
AGACAGGA	-0.136 ± 0.049
CCGGGGGA	-0.172 ± 0.081
ATGCAATG	-0.127 ± 0.0054
ATCGCTGC	0.0307 ± 0.026
CTTAAGAA	-0.0586 ± 0.033
AAACGGAC	-0.153 ± 0.016
GAGCCTGC	-0.07 ± 0.07
CATTATAC	0.056 ± 0.021
CTCATTCA	0.122 ± 0.048
GCGTTGGA	0.0932 ± 0.0039
ATGAGCCC	-0.244 ± 0.043
CCAGCCTC	-0.285 ± 0.046
TAAAGCCA	-0.299 ± 0.063
TCATGTCA	-0.0115 ± 0.029

Sequence	PBM E-score of 8-mer
CCAAGTCC	-0.109 ± 0.013
AAGGCGCC	0.235 ± 0.031
CTGGGATC	-0.0985 ± 0.035
GCCCGGAA	-0.0658 ± 0.049
CAGAATAG	-0.127 ± 0.045
ACGTCCTG	0.0715 ± 0.061
ACAAGGCT	0.061 ± 0.047
CTAACATC	-0.1377 ± 0.00032
TACTCCGA	-0.099 ± 0.054
CCACCGCG	0.0653 ± 0.048
TACGTCGA	-0.0605 ± 0.057
CCAGTGAG	-0.186 ± 0.03
CCTGTCCA	0.0333 ± 0.078
AATCGTCC	-0.25 ± 0.036
CGATGCCC	-0.152 ± 0.027
ATTGGAGA	-0.252 ± 0.013
CGGTGCGA	0.35 ± 0.017
AATTGGAA	-0.0872 ± 0.056
CCAGACGG	-0.195 ± 0.04
ACAACTCA	0.185 ± 0.039
AATTCGAT	-0.0134 ± 0.093
GTACTCAA	-0.139 ± 0.016
